Reference: PubChem BioAssay AID624296 (National Center for Advancing Translational Sciences (NCATS), 2012)
Among all 350,000 compounds or so, about 9,900 (2.8%) were called active. This list was built around the results that the source calls inconclusive (neither active nor inactive); the mix of calls is not that of the screen. Calls come from the whole dose curve; as a rule, active = well fitted activation curve with a large enough effect; inconclusive = small, poorly fitted or top-dose-only effect; inactive = no such curve, though single readings can be large or run the other way. Potencies of inconclusive entries are left out as doubtful fits.

Test: A quantitative high throughput screen for small molecules that induce DNA re-replication in MCF 10a normal breast cells. Note: nearly all actives have a fitted effect of over 50% in size.
Conditions: MCF 10A DNA re-replication, Hoechst nuclear intensity, 48 h; series mostly up to 46.1 µM
Potency is the fitted concentration of half-maximal effect; tags give direction and shape of the fitted curve.

| SMILES | Potency |
| --- | --- |
| Cc1cc(C)nc(S/C=C/C(=O)c2ccccc2F)n1 | active: 2.59 µM |
| Cc1ccc(S(=O)(=O)NCc2ccccn2)c(C)c1 | inconclusive [activator, full curve, poor fit] |
| CCOC(=O)C1=C(c2ccccc2)OC(N)=C(C#N)C1C1CCCCC1 (stereo not given) | inconclusive [activator, single point] |
| Cc1noc(C)c1COc1cccc(C(=O)OCC(=O)NCCN2C(=O)CSC2=O)c1 | inconclusive [activator, single point] |
| Cc1ccc(C)c(NC(=O)CC2Oc3ccccc3NC2=O)c1 (stereo not given) | inactive |
| C=CCn1c(=N)n(CC(=O)c2cccc([N+](=O)[O-])c2)c2ccccc21 | inconclusive [activator, partial curve, poor fit] |
| N#CC1=C(N)SC(N)=C(C#N)C1c1cccc(O)c1 | inactive |
| O=C(COC(=O)c1cc(S(=O)(=O)N2CCCC2)ccc1O)Nc1ccc(SC(F)F)cc1 | inactive |
| O=C(c1cccc(S(=O)(=O)NCCOc2ccccc2)c1)N1CCN(c2ncccn2)CC1 | inactive |
| Cc1ccc(CN(C(=O)c2csnn2)C(C(=O)NC2CCCC2)c2ccc(C)o2)cc1 (stereo not given) | inactive |
| CCOCCOC(=O)CCSc1n[nH]c(=O)[nH]c1=O | inconclusive [activator, single point] |
| COc1ccc(CNc2ncc(-c3ccc(Br)cc3)n2C)cc1OC | inconclusive [activator, single point] |
| Cc1[nH]c2ccccc2c1/C=N/NC(=O)c1cc(-c2ccncc2)nc2ccccc12 | inconclusive [activator, partial curve] |
| CCOc1ccc(C(=O)NC(=S)Nc2cccc(NC(=O)c3ccco3)c2)cc1[N+](=O)[O-] | inconclusive [activator, single point] |
| O=C1C2C3C=CC(CC3)C2C(=O)N1c1ccc(F)cc1 (stereo not given) | inactive |
| CC(=O)NC(Cc1ccccc1)C(=O)OCC(=O)c1ccc(Cl)cc1 (stereo not given) | inactive |
| COc1cc(C2c3cc4c(cc3OC(NCc3ccccc3)C2C)OCO4)cc(OC)c1OC (stereo not given) | active: 1.64 µM |
| CCOC(=O)c1c(NC(=O)CSc2nc(C)cc(C)c2C#N)sc(C(C)=O)c1C | inconclusive [activator, full curve, poor fit] |
| O=[N+]([O-])c1ccc(Cl)c(/C=N/n2c(COc3ccccc3)n[nH]c2=S)c1 | inconclusive [activator, full curve, poor fit] |
| COc1ccc(C2C(C#N)=C(N)Oc3cc(N)ccc32)cc1OC (stereo not given) | active: 18.4 µM |
